According to the supplement of paper PMC12578646, “Prodrug florfenicol amine is activated by intrinsic resistance to target Mycobacterium abscessus” (Nature Microbiology, 2025):
In brackets after ≈: the same amount, converted by molar mass. M. abscessus ATCC 19977 and its deletion, point and complemented mutants after 5 days of drug at 37 °C plus 24 h of resazurin. Growth in % of untreated wells at the dose given (lower = more inhibition); checkerboards give % inhibition (higher = more inhibition); IC50 from the fitted curve (lower = more potent). No active / inactive call. IC50 values come from the same 384-well curves. Growth is not capped and can exceed 100%. The direction of the checkerboard scale is read from the raw signals. Capreomycin is a mixture.

Assays:
[1] = test system: Mycobacterium abscessus ATCC 19977 WhiB7 R76del; assay: growth relative to untreated wells; higher = more growth (less inhibition)
Protocol: (§1)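 384-well two-fold dose series, two replicates; 5 days at 37 °C, then 24 h with resazurin; fluorescence scaled to growth and killed controls.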

[2] = test system: Mycobacterium abscessus ATCC 19977 ΔwhiB7; assay: growth relative to untreated wells; higher = more growth
Protocol: (§2)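 Two-fold dose series, three replicates; 5 days at 37 °C, then 24 h with resazurin; fluorescence scaled to growth and killed controls.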

[3] = test system: Mycobacterium abscessus ATCC 19977 Δcat; assay: as above
Protocol: as §2

[4] = test system: Mycobacterium abscessus ATCC 19977; assay: as above
Protocol: as §2

[5] = test system: Mycobacterium abscessus ATCC 19977 Eis2 Y255*
Protocol: as §1

[6] = test system: Mycobacterium abscessus ATCC 19977 WhiB7 R76del
Protocol: as §1

[7] = test system: Mycobacterium abscessus ATCC 19977 ΔwhiB7
Protocol: as §1

[8] = test system: Mycobacterium abscessus ATCC 19977 Eis2 Y284*
Protocol: as §1

[9] = test system: Mycobacterium abscessus ATCC 19977 WhiB7 T70fs
Protocol: as §1

[10] = test system: Mycobacterium abscessus ATCC 19977 Eis2 T258R
Protocol: as §1

[11] = test system: Mycobacterium abscessus ATCC 19977 Δeis2
Protocol: as §1

[12] = test system: Mycobacterium abscessus ATCC 19977 Eis2 Y227D
Protocol: as §1

[13] = test system: Mycobacterium abscessus ATCC 19977 WhiB7 L37P
Protocol: as §1

[14] = test system: Mycobacterium abscessus ATCC 19977 Eis2 E120fs
Protocol: as §1

[15] = test system: Mycobacterium abscessus ATCC 19977 WhiB7 F24fs
Protocol: as §1

[16] = test system: Mycobacterium abscessus ATCC 19977 WhiB7 A51T
Protocol: as §1

CS(=O)(=O)c1ccc([C@@H](O)[C@@H](CO)NC(=O)C(Cl)Cl)cc1 [thiamphenicol]
growth [%]
Conditions	[1]	[2]	[3]	[4]
0.5 µg/mL	104	–	–	–
1 µg/mL	108	97.6	91.1	111
2 µg/mL	103	99	85.8	99.4
4 µg/mL	110	92.5	87.1	98.3
8 µg/mL	107	96.9	91.6	99.7
16 µg/mL	117.3	97.4	82.2	94.1
32 µg/mL	20.4	95	76	102
64 µg/mL	2.99	78.9	60.5	102
128 µg/mL	-0.697	11.6	30.7	103
256 µg/mL	-1.7	1.57	3.58	104
512 µg/mL	-1.52	1.8	3.23	103
1024 µg/mL	-1.02	–	–	–

Conditions	IC50 [µg/mL]
[5]	821 (≈ 2300 µM)
[6]	28.3 (≈ 79.3 µM)
[7]	41.8 (≈ 117 µM)
[8]	715 (≈ 2010 µM)
[9]	28.5 (≈ 80 µM)
[10]	533 (≈ 1500 µM)
[11]	534 (≈ 1500 µM)
[12]	992 (≈ 2780 µM)
[13]	30 (≈ 84.3 µM)
[14]	987 (≈ 2770 µM)
[15]	28.1 (≈ 79 µM)
[16]	31.1 (≈ 87.3 µM)

CC(=O)NC[C@H]1CN(c2ccc(N3CCOCC3)c(F)c2)C(=O)O1 [linezolid]
[1]
Conditions	growth [%]
0.125 µg/mL	99.8
0.25 µg/mL	102.9
0.5 µg/mL	102
1 µg/mL	113.6
2 µg/mL	115
4 µg/mL	35.8
8 µg/mL	6.14
16 µg/mL	-2.69
32 µg/mL	-3.1
64 µg/mL	-2.89
128 µg/mL	-3.08
256 µg/mL	-2.45

Conditions	IC50 [µg/mL]
[5]	3.67 (≈ 10.9 µM)
[6]	3.67 (≈ 10.9 µM)
[7]	5.02 (≈ 14.9 µM)
[8]	3.56 (≈ 10.5 µM)
[9]	3.73 (≈ 11.1 µM)
[10]	3.19 (≈ 9.45 µM)
[11]	3.09 (≈ 9.16 µM)
[12]	4.13 (≈ 12.2 µM)
[13]	4.66 (≈ 13.8 µM)
[14]	3.72 (≈ 11 µM)
[15]	3.66 (≈ 10.8 µM)
[16]	4.75 (≈ 14.1 µM)
